Data reported in ChEMBL document CHEMBL4888484, “Replenishing the malaria drug discovery pipeline: Screening and hit evaluation of the MMV Hit Generation Library 1 (HGL1) against asexual blood stage Plasmodium falciparum ,using a nano luciferase reporter read-out” (2022).
In all, about 150,000 compounds went through this assay and about 540 (0.36%) showed an effect of 50% or more. This is one part of the list.

Each compound was assayed on Plasmodium falciparum (assay: Primary screen in NF54 nanoGlo assay, in single point, at 2uM, 72h; a lower Z score goes with more inhibition). Details: timepoint 72 hour.
Type: functional, Erythrocyte
In the case of `O=c1[nH]nc(CCNCc2cnc(-c3ccc4ccccc4c3)nc2)[nH]1`, the “% Inhibition” value is reported as -5% and the Z score is reported as 0.71. With `O=C(O)[C@@H]1CCCCC[C@@H]1NS(=O)(=O)c1cccc(F)c1F` the “% Inhibition” value was 1% and the Z score was -0.08. In the case of `NC(=NCc1ccc(O)c(Br)c1)NC1CCCCCC1`, the “% Inhibition” value is reported as -12% and the Z score is reported as 1.32. For `COCc1nc([C@@H]2CCCCCN2C(=O)c2cccc(NC(C)=O)c2)no1`, the “% Inhibition” value was -2% and the Z score was 0.25. With `Cc1cc(C)c(CNC(=O)OCC(F)(F)F)c(=O)[nH]1` the “% Inhibition” value was -1% and the Z score was 0.18. In the case of `COc1c(F)cc(NC(=O)N(C)C2CC[S+]([O-])CC2)cc1F` (stereo unspecified), the “% Inhibition” value is reported as 0% and the Z score is reported as -0.04. For `O=C(NCC1CCCO1)C1Cc2cc(C(F)(F)F)ccc2N2CCN(Cc3ccc(F)cc3)CC12` (stereo unspecified), the “% Inhibition” value was 21% and the Z score was -2.58. With `CCS(=O)(=O)NCc1nnc(C(=O)Nc2ccc(F)cc2F)s1` the “% Inhibition” value was 4% and the Z score was -0.61. `CCO[C@@H](C)c1nc(-c2cc(C(=O)N(C)C)cs2)cs1` was tested, and the “% Inhibition” value was -13% and the Z score was 1.77. In the case of `Cc1nn(C)c(C)c1OC(=O)COc1ccccc1`, the “% Inhibition” value is reported as 3% and the Z score is reported as -0.35. `COC(=O)[C@@H]1C[C@@H](NC(=O)c2ccccc2C(F)(F)F)CN1` was tested, and the “% Inhibition” value was 4% and the Z score was -0.84. For `CC(C)(Oc1ccc(C#N)cc1)c1nc([C@@H]2CCCO2)no1`, the “% Inhibition” value was 20% and the Z score was -2.54. `O=C(NC1CCCCC1)N1C[C@@H]2C[C@H](C1)c1c(NS(=O)(=O)c3cccc(F)c3)ccc(=O)n1C2` was tested, and the “% Inhibition” value was 3% and the Z score was -0.42. In the case of `C[C@@H](NC(=O)Nc1ccc(Cl)c(Cl)c1)C(=O)O`, the “% Inhibition” value is reported as 32% and the Z score is reported as -0.74. In the case of `COc1ccc(OC)c2c1nc([C@H](C)O)n2C`, the “% Inhibition” value is reported as -6% and the Z score is reported as 0.91. `COc1ccc([C@H]2CC(=O)Nc3ccsc32)cc1O` was tested, and the “% Inhibition” value was -13% and the Z score was 1.91. With `CC[C@H](C)N(Cc1c(C)nn(-c2ccccc2)c1N1CCN(CC)CC1)C(=O)Cc1ccc(F)cc1` the “% Inhibition” value was 8% and the Z score was -1.04. `CCOC(=O)CN1C(=O)N(c2cccc(C)c2)c2ncccc2S1(=O)=O` was tested, and the “% Inhibition” value was 0% and the Z score was -0.06. In the case of `CC(C)(C)[C@@H]1CS(=O)(=O)CCN1C(=O)c1ccnc2ccnn12`, the “% Inhibition” value is reported as 0% and the Z score is reported as 0.01. In the case of `CCOC(=O)C[C@H](C)NC(=O)c1c(C)cc(C)cc1C`, the “% Inhibition” value is reported as 3% and the Z score is reported as -0.43. In the case of `O=S1(=O)CC[C@H](Nc2ncc(F)cn2)C1`, the “% Inhibition” value is reported as -4% and the Z score is reported as 0.7. In the case of `O=C(NCC1(c2cccs2)CC1)NC1CCOCC1`, the “% Inhibition” value is reported as -21% and the Z score is reported as 2.45. With `N#CCCCn1nc(C(F)(F)F)ccc1=O` the “% Inhibition” value was -11% and the Z score was 1.43.
